This passage reports self-cleavage results from the RNAGym collection of RNA variant scans (doi:10.7554/elife.90254).

The source gives no read counts; variants with many changes may rest on few reads.

The labels stand for the following.
B1: LINE1-full (parent)
chain: UACGUAGGUGGUUUUCCCCUGAUAGUGCUAAGGGGGCCUGGAAGUUUGGACUGGGCAGAGCUCAACACAGCGUGGCAAAGUGGCUGUGGCUAGACUGCCUCUCUGGAUUCCUCGUCACUCAGCAGGGCAUCUCUGAGAGAAAUGCC

Variants of B1 are the subject of the data set. The data set can be described thus: self-cleavage, relative activity (ratio to wild type); higher = more cleavage; in vitro, sequencing; the parent is a self-cleaving ribozyme.
On to UACGUAGGUGGUUUUCCCCUGAUAGUGCUAAGGGGGCCUGGAAGUUUGGACUGGGCAGAGCUCAACACGGCGUGGCAAAGUGGCUGUGGCUAGACUGCCUCUCUGGAUUCCUCGACACUCAGCAGGGCAUCUCUGGGAGAAAUGCC [A69G U115A A136G], for which the self-cleavage was 0.32.
In the case of UACGUAGGUGGCUUUCCCCUGAUAGUGCUAAGGGGGCCUGGAAGUUAGGACUGGGCUGAGCUCAACACAGCGUGGCAAAGUGGCUGUGGCUAGACUGCCUCUCUGGAUUCCUCGUCACUCAGCAGGGCAUCUCUGAGAGAAAUGCC [U12C U47A A57U], the self-cleavage was 0.32.
Under UACGUAGGUGGUUUUCCCCUGAUAGUGCUAAGGGGACCUGGAAGUUUGGACUGGGCAGAGCCCAACACAGCGUGGCAAAGUGGCUGUGGCUAGACUGCCUCUCUGGACUCCUCGUCACUCAGCAGGGCAUCUCUGCGAGAAAUGCC [G36A U62C U108C A136C] stands 0.03; under UACGUAGGUGGUUUUCCCCUGAUAGUGCUAAGGGGGCCUGGAAGUUUGGACCGGGCAGAGCUCGACACAGCGUGGCAAAGUGGCUGUGGCUAGACUGCCUCUCUGGAUUCCUCGUCACUCAGCAGGGCAUCUCUGAGAGAAGUGCC [U52C A64G A142G], 0.07; under UACGUAGGUGGUUUCCCCCUGAUAGUGCUAAGGGGGCCUGGAAGUUUGGACUGGGCGGAGCUCAACACAGCGUGGCAAAGUGGCUGUGGCUAGACUUCCUCUCUGGAAUCCUCGUCACUCAGCAGGGCAUCUCUGAGAGAAAUGCC [U15C A57G G97U U108A], 0.04.
In the case of AACGUAGGUGGUUUUCCCCUGAUAGUGCUAAGGGGGCCUGGAAGUUUGGACUGGGCAGAGCUCAACACAGCGUGGCGAAGUGGCUGUGGCUAGACUGCCUCUCUGGAUUCCUCGUCACUCAGCAGGGCAUCUCCGAGAGAAAUGCC [U1A A77G U134C] it was 1.39.
In the case of UACGUAUGUGGUUUUCCCCUGAUAGUGCUAAGGGGGCCUGGAAGUUUGGACUGGGCAGAGCUCAACCCAGCGUGGCAAAGUGGCUGUGGCUAGACUGCCUCUCUGGAUUCCUCGUUACUCAGCAGGGCAUCUCUGAGAGAAAUGCC [G7U A67C C116U] it was 0.08; in that of UACGUAGGUGGUUUCCCCCUGAUAGUGCUAAGGGGGCCUGGAAGUUUGGACAGGGCAGAGCUCAACACAGCGUGGCAAAGUGGCUGUGGCUAGACUGCCUCCCUGGAUUCCUCGCCACUCAGCAGGGCAUCUCUGAGAGAAAUGCC [U15C U52A U102C U115C], 2.1; in that of CACGUAGGUGGUUUUCCCCUGAUAGUGCUAAGGGGGCCUGGAAGUUUGGACUGGGCAGAGCUCAACACAGCGUGGCAAAGUGGCUGUGGCUAGACUGCCUCUCUGGAUACCUCGUCACUCAGCAGGGCGUCUCUGAGAGAAAUGCC [U1C U109A A129G], 0.55.
UACGUAGGUGGUUUUCCCCUGGUAGUGCUAAGGGGGCCUGGAAGUUUGGACUGGGCAGAGCUCAACACAGCGUGGCAAAGUGGCUGUGGCUAGACUGCCACUCUGGAUUCCUCGUCACUCAGCAAGGCAUCUCUGAGAGAAAUGCC [A22G U100A G125A]: the self-cleavage is 0.32.
Take UACGUAGGUGGUUUUCCCCUGAUAGUGCUAAGGGGGCCUGGAAGUUUGGACUGGGCAGUGCUCAACACAACGUGGCAAAGUGGCUGUGGCUAGACUGCCUCUCUGGACUCCUCGUCACUCAGCAGGGCAUCUCUGAGAGAAAUGCC [A59U G70A U108C]: the self-cleavage turned out to be 0.2.
With UACGUAGGUGGUUUCCCCCUGAUAGUGCUAAGGGGGCCUGGAAGUUUGGACUGGGCAGAGCCCAACACAGCGUGGCAAAGUGGCUGUGGCUAGACUGCCUCUCUGGAUUCCUCGUCACUCAGCAGGGCAUCCCUGAGAGAAAUGCC [U15C U62C U132C], the self-cleavage was determined as 0.
Under UACGUAGGUGGUUUUCCCCUGAUAGUGCUAAGGGGGCCUGGAAGUCUGGACUGGGCAGAGCUUAACACAGCGCGACAAAGUGGCUGUGGCUAGACGGCCUCUCUGGAUUCCUCGUCACUCAGCAGGGCAUCUCUGAGAGAAAUGCC [U46C C63U U73C G75A U96G] stands 0.02; under UACGUAGGUGGUUUUCCCCAGAUAGUGCUAAGGGGGUCUGGAAGUUUGGACUGGGCAGAGCUCAACUCAGCGUGGCAAAGUGGCUGUGGCUAGACUGCCUCUCUGGAUUCCUCGUCACUCAGCAGGGCAUCUCUGAGAGAAAUGCC [U20A C37U A67U], 0.11.
Under UACGUAGGUGGUUUUCCCCUGAUAGUGCUAGGGGGGCCUGGAAGUUUGGGCUGGGCAGAGCUCAACACAGCGUGGCUAAGUGGCUGUGGCUAGACUGCCUCUCUGGAUUCCUCGUCACUCAGCAGGGCAUCUCUGGGAGAAAUGCC [A31G A50G A77U A136G] stands 0.26.
Under UACGUAGGUGGUUUUCCCCUGAUAGUGCUAAGGGGGCCUGGAAGUUUGGACUGGGCAGAGCUCAUCACAGGGUGGCAGAGUGGCUGUGGCUAGACUGCCUCUCUGGAUUCCUCGUCACUCAGCAGGGCAUCUCUGAGGGAAAUGCC [A65U C71G A78G A138G] stands 0.06; under UACGUAGGCGGUUUUCCCCUGAUAGUGCUAAGGGGGCCUGGAAGUUUGGACUGGGCAGAGCUCAACACAGCGUGGCAAAGUGGCUGUGGCUAGACUGCCUCUCCGGAUUCCUCGUCACUCAGCAGGGCAUCUCUUAGAGAAAUGCC [U9C U104C G135U], 0.99.
Turning to UACGUAGGUGGUUUUCCCCUGAUAGUGCUAAGGGGGCCAGGAAGUUUGGACUGGGCAGAGCUCAACACAGCGUGGCAAAGUGGCUGUGGCUGGACUGCCUCCCUGGAUUCCUCGUCACUCAGCAGGGCAUCUCUGAGAGAAAUGCC [U39A A92G U102C], the self-cleavage was 0.2.
Under UACGUAGGUGGUUUUCCCCUGAUAGUGCUAAGGGGGCCUGGAAGUUUGGACUGGGCAGAGCUCAACACAGCGAGGCAAAGUGGCUGAGGCUAGACUGCCUCUCUGGAUUCCUCGUCACUCAGCAGGGCAUCCCUGAGAGAAAUGCC [U73A U87A U132C] stands 0.05.
Under UACGUAGGUGGUUUUCCCCUGGUAGUGCUAAGGUGGCCUGGAAGUUUGGACUGGACAGAGCUCAACACAGCGUGGCAAAGUGGCUGUGGCUAGACUGCCUCUCUGGAUUCCUCGUCACUCAGCAGGGCAUCUCUGAGAGAAAUGCC [A22G G34U G55A] stands 0.65.
Under UACGUAGGUGGUUUUCCCCAGAUAGUGCUAAGGGGGCCCGGAAGUUUGGACUGGGCAGAGCUCAGCACAGCGUGGCAAAGUGGCUGUGGCUAGACUGCCUCUCUGGAUUCCUCGUCACUCAGCAGGGCAUCUCUGAGAGAAAUGCC [U20A U39C A65G] stands 0; under UACGUAGGUGGUUUUCCCCUGAUAGUGCUAAGGGGGCCUGGAAGUUCGGACUGGGCAGAGCUCGACACAGCGUGGCAAAGUGGCUGUGGCUAGACUGCCUCUCUGGAUUCCUCGUCACUCAGCAGGGCAUCUCUGAGAGGAAUGCC [U47C A64G A140G], 0.58; under UACGUAGGUGGUUUUCCCCUGAUAGUGCUAAGGGGGCCUGGAAGCUUGGACUGGGCAGAGCUCAACACAGCGUGGCAAAGUGGCUGUGGCUAGACCGCCUCUCUGGAUUCCUCGUCACUCAGCAGGGCAUCCCUGAGGGAAAUGCC [U45C U96C U132C A138G], 0.
On to UACGUAGGUGGUCUUCCCCUGAUAGUGCUAAGGGGGCCUGGAAGUUUGGACUGGCCAGAGCUCAACACAGCGCGGCAAAGUGGCUGUGGCUAGACUGCCUCUCUGGAUUCCUCGUCACUCAGCAGGGCAUCUCUGAGAGAAAUGCC [U13C G55C U73C], for which the self-cleavage amounted to 0.
In the case of UACGGAGGUGGUUUUCCCCUGAUAGUGCUAAGGGGGCCAGGAAGUUUGGACUGGGCAGGGCUCAACACAGCGUGGCGAAGUGGCUGUGGCUAGACUGCCUCUCUGGAUUCCUCGUCACUCAGCAGGGCAUCUCUGAGAGAAAUGCC [U5G U39A A59G A77G] it was 0.19.
Under UACGUAGGUGGUUUUCCCCUGAUAGUGCUAAGGGGGCCUGGAAGCUUGGACUGGGCAGAGCUCAACACAGCGUGGCAAAGUGGCUGUGGCUAGACUGCCUCUCUGGAAUCCUCGUCCCUCAGCAGGGCAUCACUGAGAGAAAUGCC [U45C U108A A117C U132A] stands 2.16; under UACGUAGGUGGUUUUCCCCUGAUAGUGCUUAGGGGGCCUGGAAGUUUGGACUGGGCAGAGCUCUACACAGCGUAGCAAAGUGGCUGUGGCUAGUCUGCCUCUCUGGAUCCCUCGUCACUCAGCAGGGCAUCUCUGAGAGAAAUGCC [A30U A64U G74A A94U U109C], 0.11.
Under UACGUGGGUGGUUUUCCCCUGAUAGUGCUAAGGGGGCCUGGAAGUUUGGACUGGGCAGAGCUCAACACAGCGUGGCAAAGCGGCUGUGGCUAGGCUGCAUCUCUGGAUUCCUCGUCACUCAGCAGGGCAUCUCUGAGAGAAAUGCC [A6G U81C A94G C99A] stands 0; under UACGCAGGUGGUUUUCCCCUGAUAGUGCUAAGGGGGCCUGGAAGUUCGGACUGGGCAGAGCUCAACACUGCGUGGCAAAGUGGCUGUGGCUAGACUGCCUCUCUGGAUUCCUCGUCACUCAGCAGGGCAUCUCUGAGAGAAAUGCC [U5C U47C A69U], 0.3; under UACGUAGGUGGUUUUCCCCUGAUAGUGCUGAGGGGGCCUGGAAGUUUGGACUGGGCAGAGCUCAACACAGCGCGGCAAAGUGGCUGUGGCUAGACAGCCUCUCUGGAUUCCUCGUCACUCAGCAGGGCAUCUCUGAGAGAAAUGCC [A30G U73C U96A], 0.1.
UACGUAGGUGGUUUUCCCCUGAUAGUGCUAAGGGGGCCUGGAAGAUUGGACUGGGCAGAGCUCGACACAGCGUGGCAAAGUGGCUGUGGCUAGACUGCCUCUCUGGAUUCCUCGUCACUCAGCAGGGCAUCUCUGAGAGAAGUGCC [U45A A64G A142G]: the self-cleavage was 0.16.
For the variant UACGUAGGUGGUUUUCCCCUGAUAGUGCUUAGGGGGCCUGGAAGUUUGGACUGGGCAGAGCUCAACACAGCGUGGCAAAGUGGCUGUGGCUAGACUGCCUCUCUGGAUUCCUCGUCACUCGGCAGGGCAUCUCUGAGUGAAAUGCC [A30U A121G A138U], the self-cleavage was 1.28.
For the variant UACGUAGGUGGUUUUCCCCUGAUAGUGCUAAGGGGGCCUGGAAGUUUGGACCGGGCAGAGCCCAACACAGCGUGGCAAAGUGGCUGUGGCUAGACUGCCUCUCUGGAUUCCUCGUCACUCAACAGGGCAUCUCAGAGAGAAAUGCC [U52C U62C G122A U134A], the self-cleavage was 0.08.
In the case of UACGUGGGUGGUUUUCCCCUGAUAGUGCUAAGGGGGCCUGGAAGUUUGGUCUGGGCAGGGCUCAACACAGCGUGGCAAAGUGGCUGUGGCUAGACUGCCUCUCUGGAUACCUCGUCACUCAGCAGGGCAUCUCUGAGAGAAAUGCC [A6G A50U A59G U109A] it was 0.21; in that of UACGUAGGUGGUUUUCCCCUGAUAGUGCUAAGGGGGCCUGGAAGUUUGGACUGGGCAGAGCUCAACACAGCGUGGCAAAGUGGCUGUGGCUAGACUGCCUCCCUGGUUUCCUCGUCACUCAGCGGGGCAUCUCUGAGAGAAAUGCC [U102C A107U A124G], 2.43.
In the case of UACGUAGGUGGUUUCCCCCUGAUAGUGCUAGGGGGGCCUGGAAGUUUGGACUGGGCAGAGCUCAACACAGCGUGGUAAAGUGGCUGUGGCUAGACUGCCUCUCUGGUUUCCUCGCCACUCAGCAGGGCAUCUCUGAGAGAGAUGCC [U15C A31G C76U A107U U115C A141G] it was 2.84; in that of UACGUAGGUGGUCUUCCCCUGAUAGUGCUAAGGGGGCCUGGGAGUUUGGACUGGGCAGAGCUCAACACUGCGUGGCAAAGUGGCUGUGGCUAGACUGCCUCUCUGGAUACCUCGUCACUCAGCAGGGCAUCUCUGAGAGAAAUGCC [U13C A42G A69U U109A], 0.04; in that of UACGUAGGUGGUUCUCCCCUGAUAGUGCCAAGGGGGCCUGGAAGUCUGGACUGGGCAGAGCUCAACACAGCGUGGCAAAGUGGCUGUGGCUAGACUGCCUCUCUGGAUUCCUCGUCACUCAGCAGGGCAUCUCUGAGAGAAAUGCC [U14C U29C U46C], 0.78.
In the case of UACGUAGGUGGUUUUCCCCUGAUAGUGCUAAGGGGGCCUGGAAGUUUGGACUGGGCAGGGCUCAACACAGCGUGGCAAAGUGGCCGUGGCUAGACUGCCUCUCUGGACUCCUCGUCACUCAGCAGGGCAUCUCUGAGAGAAAUGCC [A59G U85C U108C] it was 0.
